Laboratory results: PubChem BioAssay AID686979 (National Center for Advancing Translational Sciences (NCATS), 2013)
Among all 420,000 compounds or so, about 50,000 (12%) were called active. The shares of active, inactive and inconclusive entries below differ from those in the screen. Calls come from the whole dose curve; as a rule, active = well fitted inhibition curve with a large enough effect; inconclusive = small, poorly fitted or top-dose-only effect; inactive = flat fitted curve, though single readings scatter. No potency is given beside an inconclusive call; the fits are too rough.

assay: qHTS for Inhibitors of human tyrosyl-DNA phosphodiesterase 1 (TDP1): qHTS in cells in presence of CPT; details: chicken DT40 Tdp1-/-;hTDP1 cells + 20 nM CPT, ATP luminescence, 48 h; activity change, negative = growth inhibition: at 46.2 µM (top of the series) unless noted; note: nearly all actives have a fitted effect of over 55% in size
Summary of the method: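 Chicken DT40 Tdp1-/- cells complemented with human TDP1, 400 cells/well, exposed to compounds plus 20 nM camptothecin for at least 48 h at 37 C; viability read as ATP content by CellTiter-Glo luminescence.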
% is set by controls: 0 for no effect and ±100 for the full control effect; potency is the fitted concentration of half-maximal effect; tags give direction and shape of the fitted curve.

Q: For `CC(C(=O)Nc1ccc(S(N)(=O)=O)cc1)N1CCc2ccccc21` (stereo unspecified), which Potency is on record?
A: The Potency was “inactive”.

Q: Which Potency does the source give for `O=C(NCSc1ccccc1)c1ccccc1` here?
A: The Potency was inconclusive [inhibitor, single point].

Q: Which Potency does the source give for `CSc1ccc(CNc2ncc(-c3ccccc3)n2C)cc1` here?
A: Its Potency is inconclusive [inhibitor, single point].

Q: For `COCCN=C1N[C@@H](c2ccccc2)C(C(=O)OC)=C(C)N1Cc1ccccc1`, which Potency is on record?
A: The Potency was inconclusive [inhibitor, single point].

Q: With `COc1ccc(CCNC(=O)COC(=O)c2ccc([N+](=O)[O-])o2)cc1` as the molecule, how does the Potency read?
A: The Potency was “inactive”.

Q: With `CC(=O)Oc1ccccc1Cn1c(C)c(C(=O)NCc2ccccc2C(F)(F)F)sc1=O` as the molecule, how does the Potency read?
A: The Potency was inconclusive [inhibitor, single point].

Q: With `CCOC(=O)c1ccc(NC(=O)COCc2cc(-c3ccc4c(c3)OCO4)on2)cc1` as the molecule, how does the Potency read?
A: The Potency was “inactive”.

Q: For `CCN1CCCC1CN=Cc1c(O)n(-c2ccccc2)c(=O)c2ccccc12` (stereo unspecified), which Potency is on record?
A: The Potency was “inactive”.

Q: For `O=C(NCc1ccncc1)C(=O)Nc1nc(C23CC4CC(CC(C4)C2)C3)cs1`, which Potency is on record?
A: Its Potency is active: 20.6 µM.

Q: With `COc1ccccc1CNc1nc(SC)ncc1CO` as the molecule, how does the Potency read?
A: The Potency was inconclusive [inhibitor, single point].

Q: With `CCOc1cc(N2CCOCC2)c(OCC)cc1NC(=O)c1c(-c2ccccc2Cl)noc1C` as the molecule, how does the Potency read?
A: Its Potency is active: 10.3 µM.

Q: For `N/C(Cc1nc2ccccc2s1)=N\O`, which Potency is on record?
A: The Potency was inconclusive [inhibitor, single point].

Q: For `Clc1ccc(-c2nc3ccccn3c2CN2CCSCC2)cc1`, which Potency is on record?
A: Its Potency is active: 29.1 µM.

Q: For `Cc1ccc(NC(=O)/C(C#N)=C/c2cc(C)n(-c3ccc(N4CCOCC4)c([N+](=O)[O-])c3)c2C)c(C)c1`, which Potency is on record?
A: Its Potency is active: 7.31 µM.

Q: For `CCN(CC)S(=O)(=O)c1ccc(C(=O)Nc2nc3c(Cl)cc(Cl)cc3s2)cc1`, which Potency is on record?
A: Its Potency is inconclusive [inhibitor, single point].

Q: With `CC(=O)NCC(=O)OCN1C(=O)c2ccccc2C1=O` as the molecule, how does the Potency read?
A: Its Potency is “inactive”.

Q: For `Cc1cccc(C)c1NC(=S)N/N=C1\CC2CC=CC12` (stereo unspecified), which Potency is on record?
A: Its Potency is inconclusive [inhibitor, single point].

Q: With `O=C(Nc1ccccc1O)c1c(O)c2c([nH]c1=O)CCCC2` as the molecule, how does the Potency read?
A: Its Potency is inconclusive [inhibitor, partial curve].

Q: Which Potency does the source give for `OC(C#Cc1ccccn1)c1cccs1` (stereo unspecified) here?
A: The Potency was active: 18.4 µM.

Q: Which activity change, negative = growth inhibition does the source give for `O=C(Nc1ccc(Cn2nnc3ccccc32)cc1)c1ccco1` here?
A: The activity change, negative = growth inhibition was inconclusive: -30.2% [inhibitor].

Q: Which Potency does the source give for `Cc1noc(/C=C/N(C)C)c1S(=O)(=O)N(C)CC(=O)N1CCc2ccccc21` here?
A: The Potency was inconclusive [inhibitor, single point].

Q: Which Potency does the source give for `Cc1ccc(OC(=O)c2cc(-c3ccc4c(c3)OCCO4)on2)cc1C` here?
A: The Potency was “inactive”.

Q: Which Potency does the source give for `O=C(NC(=S)NNC(=O)c1cccs1)c1ccc(Br)o1` here?
A: The Potency was inconclusive [inhibitor, single point].

Q: For `CN1CCN(c2nc(N3CCN(c4ccccc4)CC3)ncc2F)CC1`, which Potency is on record?
A: Its Potency is inconclusive [inhibitor, single point].

Q: For `Cc1cc(S(=O)(=O)Nc2ccc3cn[nH]c3c2)c(C)cc1Cl`, which Potency is on record?
A: The Potency was “inactive”.

Q: For `O=C(CN1C(=O)CCSc2ccc(S(=O)(=O)N3CCOCC3)cc21)Nc1ccccc1Cl`, which Potency is on record?
A: The Potency was inconclusive [inhibitor, single point].

Q: Which Potency does the source give for `Clc1ccc(-c2cc(C3CCNCC3)[nH]n2)c(Cl)c1` here?
A: The Potency was inconclusive [inhibitor, single point].

Q: With `CC1=CC(C)(C)N(C(=O)CCl)c2ccccc21` as the molecule, how does the Potency read?
A: Its Potency is inconclusive [inhibitor, single point].

Q: For `CCNC(=O)C(=O)c1c(-c2ccccc2)[nH]c2ccccc12`, which Potency is on record?
A: The Potency was “inactive”.

Q: Which Potency does the source give for `COc1ccc(NC(=O)c2oc3ccccc3c2NC(=O)c2cc3ccccc3o2)cc1` here?
A: Its Potency is inconclusive [inhibitor, partial curve].

Q: For `COC(=O)C1=C(N)N(c2ccccc2F)C2=C(C(=O)CC(C)(C)C2)C1c1ccc(OC)c(OC)c1` (stereo unspecified), which Potency is on record?
A: Its Potency is inconclusive [inhibitor, single point].

Q: With `OC[C@@H]1CN(Cc2ccc(F)cc2)C[C@H](n2cnc3c(N4CCCC4)ncnc32)O1` as the molecule, how does the Potency read?
A: The Potency was inconclusive [inhibitor, partial curve, poor fit].

Q: With `CCc1ccc(NS(=O)(=O)c2ccc3[nH]cc(C(=O)NCC4CCCO4)c(=O)c3c2)cc1` (stereo unspecified) as the molecule, how does the Potency read?
A: The Potency was “inactive”.

Q: With `Cc1cc(C(=O)N/N=C/c2ccco2)c2ccccc2n1` as the molecule, how does the Potency read?
A: Its Potency is inconclusive [inhibitor, single point].

Q: For `Cc1cc(C)nc(-n2nc(C)cc2NC(=O)C(C)C)n1`, which Potency is on record?
A: Its Potency is “inactive”.

Q: For `CC1CCCC(NC(=O)CCCCCn2c(=S)[nH]c3ccsc3c2=O)C1C` (stereo unspecified), which Potency is on record?
A: The Potency was inconclusive [inhibitor, single point].

Q: For `CN(c1ccc(F)cc1)S(=O)(=O)c1ccc(Cl)c(C(=O)NCC2CCCO2)c1` (stereo unspecified), which Potency is on record?
A: The Potency was inconclusive [inhibitor, partial curve, poor fit].

Q: Which Potency does the source give for `S=C(c1ccc2c(c1)OCO2)N1CCN(c2cccc(Cl)c2)CC1` here?
A: Its Potency is active: 3.66 µM.

Q: Which Potency does the source give for `CC(=O)c1sc(-c2ccccc2)cc1NS(=O)(=O)c1ccccc1` here?
A: The Potency was “inactive”.

Q: Which Potency does the source give for `O=C(NCCN1C(=O)S/C(=C\c2cccnc2)C1=O)C1=NN(c2ccccc2)C(=O)CC1` here?
A: The Potency was inconclusive [inhibitor, single point].

Q: With `Cc1cccc(-n2c3nc(=O)[nH]c(=O)c-3cc3c(Cl)cccc32)c1C` as the molecule, how does the Potency read?
A: The Potency was active: 0.82 µM.

Q: Which Potency does the source give for `COc1ccc(CCN(C(=O)C(F)(F)F)C(C(=O)NC2CCCCC2)c2ccc(C)s2)cc1` (stereo unspecified) here?
A: Its Potency is active: 3.26 µM.

Q: Which Potency does the source give for `CCc1nc2c(OCc3ccc(OC(F)F)cc3)cccn2c1N(C)C(=O)c1cccs1` here?
A: Its Potency is active: 20.6 µM.

Q: For `COc1ccc(-c2cc(C(=O)Nc3cccnc3)c3ccccc3n2)cc1OC`, which Potency is on record?
A: The Potency was active: 23.1 µM.

Q: With `CC1CC(C)CN(C(=O)Cn2c(SCC(=O)N3CCc4ccccc4C3)nc3ccccc32)C1` (stereo unspecified) as the molecule, how does the Potency read?
A: Its Potency is inconclusive [inhibitor, single point].

Q: With `C/C(CC(=O)Nc1ccc2c(c1)OCCO2)=N\NC(=O)c1ccccc1Cl` as the molecule, how does the Potency read?
A: Its Potency is “inactive”.

Q: For `COc1cc2oc(=O)c(CC(=O)N3CCCCC3)c(C)c2cc1Cl`, which Potency is on record?
A: The Potency was “inactive”.

Q: Which Potency does the source give for `CC(C)CN(CC(C)C)C(=O)CN1C(=O)NC2(CCCc3ccccc32)C1=O` (stereo unspecified) here?
A: Its Potency is “inactive”.

Q: For `Cc1c(O)ccc2c3c(c(=O)oc12)CCC(C)C3` (stereo unspecified), which Potency is on record?
A: The Potency was active: 23.1 µM.

Q: Which Potency does the source give for `Cc1cccc(N(CC(=O)NC2CCCC2)C(=O)c2cc3cc4cccc(C)c4nc3s2)c1C` here?
A: The Potency was active: 18.4 µM.

Q: With `COc1ccc(NC(=O)C2Cc3cccc(OC)c3O/C2=N\O)cc1` (stereo unspecified) as the molecule, how does the Potency read?
A: Its Potency is inconclusive [inhibitor, single point].

Q: For `Cc1cc(C)n(C(C)CNS(=O)(=O)c2ccc(Cl)cc2)n1` (stereo unspecified), which Potency is on record?
A: Its Potency is “inactive”.

Q: Which Potency does the source give for `CCCCn1c(C(C)NC(=O)COC)nc2ccccc21` (stereo unspecified) here?
A: Its Potency is inconclusive [inhibitor, single point].

Q: Which Potency does the source give for `COc1cc(C(=O)OCC(=O)NC2CCS(=O)(=O)C2)ccc1OCc1c(C)noc1C` (stereo unspecified) here?
A: Its Potency is “inactive”.

Q: With `Cc1csc(C(C#N)C(=O)c2cc3ccccc3o2)n1` (stereo unspecified) as the molecule, how does the activity change, negative = growth inhibition read?
A: The activity change, negative = growth inhibition was inconclusive: -35.4% [inhibitor].

Q: For `O=C(c1ccccc1F)N1CCN(c2ccccc2F)CC1`, which Potency is on record?
A: The Potency was “inactive”.

Q: With `Cc1cccc(N2CCN(C3=NC(=O)C(=C4CCCCC4)S3)CC2)c1` as the molecule, how does the Potency read?
A: The Potency was inconclusive [inhibitor, single point].

Q: Which Potency does the source give for `COc1cccc(C(=O)NCCN2CCN(c3ccccc3)CC2)c1` here?
A: Its Potency is “inactive”.

Q: For `Cc1ccnc(NC(=O)c2ccc(Br)s2)c1`, which Potency is on record?
A: Its Potency is inconclusive [inhibitor, single point].

Q: For `CN1CCN(CCOc2ccc(Cc3ccccc3)cc2)CC1`, which Potency is on record?
A: The Potency was inconclusive [inhibitor, single point].

Q: Which Potency does the source give for `COc1ccc(N2CCN(Cc3cc(=O)oc4ccc5ccccc5c34)CC2)cc1` here?
A: Its Potency is inconclusive [inhibitor, single point].

Q: Which Potency does the source give for `O=C(NCC(c1ccco1)S(=O)(=O)c1cccs1)c1ccc(F)cc1` (stereo unspecified) here?
A: The Potency was inconclusive [inhibitor, single point].

Q: Which Potency does the source give for `COC(=O)Nc1c(-c2ccccc2)nc2ccc(Cl)cn12` here?
A: Its Potency is “inactive”.

Q: Which Potency does the source give for `c1ccc2c(Cc3c[nH]c4ccccc34)c[nH]c2c1` here?
A: Its Potency is “inactive”.

Q: Which Potency does the source give for `CCCOc1ccc2oc(=O)c3c(c2c1)CCCN3C(=O)CN1CCN(c2ncccn2)CC1` here?
A: The Potency was active: 18.4 µM.

Q: For `CCOc1cccc2cc(C(=O)NCc3ccc(OC)cc3)c(=N)oc12`, which Potency is on record?
A: The Potency was active: 25.9 µM.

Q: Which Potency does the source give for `O=C(/C=C/c1cccc(F)c1)N1CCc2ccccc21` here?
A: Its Potency is “inactive”.

Q: Which Potency does the source give for `Oc1cccnc1CCc1ccccc1` here?
A: The Potency was “inactive”.

Q: For `Cc1ccc2c(c1)N(CC(=O)N1CCN(c3nc4ccccc4s3)CC1)C(=O)C(C)O2` (stereo unspecified), which Potency is on record?
A: Its Potency is inconclusive [inhibitor, partial curve].

Q: With `C[n+]1cccc(O)c1SCc1ccccc1` as the molecule, how does the Potency read?
A: The Potency was active: 5.17 µM.

Q: With `O=C(COc1ccc(F)cc1)Nc1ccc2nc(SCC(=O)N3CCc4ccccc43)sc2c1` as the molecule, how does the Potency read?
A: The Potency was active: 2.59 µM.

Q: For `COc1ccc2c(c1)[nH]c1c(N3CCN(Cc4ccc5c(c4)OCO5)CC3)ncnc12`, which Potency is on record?
A: Its Potency is active: 2.31 µM.

Q: For `O=C(/C=C/c1ccc([N+](=O)[O-])cc1)NCCc1ccc(F)cc1`, which Potency is on record?
A: Its Potency is inconclusive [inhibitor, single point].

Q: Which Potency does the source give for `COc1ccc(CNC(=O)C[C@H]2C[C@H](C(=O)N3CCCCC3)[C@@]3(C)c4[nH]c5ccc(Cl)cc5c4CCN3C2=O)cc1OC` here?
A: Its Potency is active: 18.4 µM.

Q: With `c1cncc(CSc2ccc(-c3ccc4c(c3)OCO4)nn2)c1` as the molecule, how does the Potency read?
A: The Potency was inconclusive [inhibitor, single point].

Q: With `O=C(COc1ccc2ccccc2c1)N1c2ccccc2Sc2ccccc21` as the molecule, how does the Potency read?
A: The Potency was inconclusive [inhibitor, partial curve].
